According to article PMC4336329 (PLoS ONE, 2015):
The campaign covered roughly 310,000 compounds. About 2,200 (0.71%) showed an effect of 50% or more. The effect is printed as a negative number. This is one part of the list. Where a SMILES comes first, the peptide text is derived from it. [ ]: non-standard residue; d: D form. The star is where a group is joined. Phe(4-Me) = Cc1ccc(C[CH](N)C(=O)O)cc1; Bz = O=C(c1ccccc1)*

biological target: human ether-à-go-go-related gene (hERG) potassium channel (human, UniProt Q12809); experiment: primary screen, population patch clamp on CHO cells stably expressing hERG
Sequence (Q12809 whole entry, looked up): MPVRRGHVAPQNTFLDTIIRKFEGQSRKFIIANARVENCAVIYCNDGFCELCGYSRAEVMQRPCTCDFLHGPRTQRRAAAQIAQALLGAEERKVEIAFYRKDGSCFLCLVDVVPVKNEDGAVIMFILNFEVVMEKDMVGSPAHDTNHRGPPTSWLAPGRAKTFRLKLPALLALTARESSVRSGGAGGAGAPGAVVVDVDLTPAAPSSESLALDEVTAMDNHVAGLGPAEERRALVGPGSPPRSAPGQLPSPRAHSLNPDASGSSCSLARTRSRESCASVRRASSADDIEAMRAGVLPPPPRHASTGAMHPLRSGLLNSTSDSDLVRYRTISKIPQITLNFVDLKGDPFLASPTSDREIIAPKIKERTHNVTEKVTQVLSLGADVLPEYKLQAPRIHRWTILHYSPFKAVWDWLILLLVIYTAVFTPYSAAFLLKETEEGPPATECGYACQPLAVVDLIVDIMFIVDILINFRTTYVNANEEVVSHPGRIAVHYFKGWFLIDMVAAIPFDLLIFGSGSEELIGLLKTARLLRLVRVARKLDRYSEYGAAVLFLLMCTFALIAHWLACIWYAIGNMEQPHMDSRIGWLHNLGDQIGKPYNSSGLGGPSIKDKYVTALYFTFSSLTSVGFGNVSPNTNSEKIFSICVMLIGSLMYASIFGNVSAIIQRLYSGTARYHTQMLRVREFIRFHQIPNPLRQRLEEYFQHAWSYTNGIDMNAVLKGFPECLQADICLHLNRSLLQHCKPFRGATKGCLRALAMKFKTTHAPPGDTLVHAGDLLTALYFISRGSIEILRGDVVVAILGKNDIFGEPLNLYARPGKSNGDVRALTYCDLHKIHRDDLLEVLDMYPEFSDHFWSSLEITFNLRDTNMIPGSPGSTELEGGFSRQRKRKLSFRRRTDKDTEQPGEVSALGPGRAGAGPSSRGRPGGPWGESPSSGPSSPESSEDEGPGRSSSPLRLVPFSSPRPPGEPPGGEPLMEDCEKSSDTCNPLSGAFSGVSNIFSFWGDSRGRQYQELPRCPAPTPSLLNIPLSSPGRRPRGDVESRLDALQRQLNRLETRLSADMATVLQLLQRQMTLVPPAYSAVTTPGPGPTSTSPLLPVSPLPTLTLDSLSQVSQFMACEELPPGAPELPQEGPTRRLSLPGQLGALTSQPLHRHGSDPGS

Row | Compound | hERG current change (%, negative = inhibition) at 1uM
1 | Cc1c(C)n(C)c2ccc(C(=O)NCCCN(C)C3CCCCC3)cc12 | -9.18%
2 | COc1ccc(N(CC(=O)Nc2ccc(OC)cc2OC)S(=O)(=O)c2ccccc2)cc1 | 6.3%
3 | Cc1nn(-c2ccccc2)c(N)c1N=Nc1ccc2ccccc2c1 | 7.52%
4 | CCN(Cc1cc2ccccc2[nH]c1=O)C(=O)C1CCCCC1 | -0.159%
5 | O=C(NCC1CC1)C1(C(F)(F)F)CC(CCCO)CCCO1 (stereo not shown) | 20.8%
6 | O=C(OCc1cccc(C(F)(F)F)c1)c1cc(S(=O)(=O)N2CCOCC2)ccc1F | 3.15%
7 | O=C(OCn1nnc2ccccc2c1=O)c1cccnc1 | 6.41%
8 | CC(=O)Nc1ccc(S(=O)(=O)NCC2CCC(C(=O)NC(C)c3ccc4c(c3)OCCO4)CC2)cc1 (stereo not shown) | 12.2%
9 | CSc1ccc(Cl)c(C(=O)NCCOc2cc(C(C)C)ccc2C)c1 | 14.9%
10 | COc1cccc(-c2ccc3nnc(SCC(=O)N4CCCC4)n3n2)c1 | 4.55%
11 | COc1cc(/C=N/Nc2nncn2/N=C/c2ccc(O)c(OC)c2)ccc1O | 8.08%
12 | COc1ccc(N2CCN(C(=O)c3ccc(-n4nc(C)cc4C)cc3)CC2)cc1 | 3.15%
13 | CN(C(=O)COC(=O)c1cc(=O)[nH]c2ccccc12)C1CCCCC1 | 6.86%
14 | CCOc1c2ccc(C(=O)NC3CCCc4ccccc43)cc2nn1C (stereo not shown) | 10%
15 | O=C(NCc1ccccn1)Nc1cccc(NC(=O)NCc2ccccn2)c1 | -1.83%
16 | O=C(Nc1c(C(=O)N2CCOCC2)cnn1-c1ccccc1)c1ccccc1 | -9.15%
17 | C[n+]1cccc2c(Br)ccc([O-])c21.O | 16.1%
18 | COc1cc2c(cc1OC)-c1nnc(C)n1C(C)(C)C2 | 6.66%
19 | CCOC(=O)n1c(SCC(=O)N(CC)CC)nc2ccccc21 | 8.17%
20 | Cc1cc(C)n(-c2cc(N3CCOCC3)nc(-c3ccccc3)n2)n1 | 3.04%
21 | C/C(=C\COc1cc(=O)[nH]c2ccccc12)CCC(O)C(C)(C)O (stereo not shown) | 8.59%
22 | Cn1c(N)c(S(=O)(=O)N2CCN(C(=O)c3ccco3)CC2)c(=O)n(C)c1=O | 5.82%

Row | Compound | hERG current change (%, negative = inhibition) at 1uM
23 | O=C(Nc1cccnc1)c1ccccc1NS(=O)(=O)c1ccc(F)cc1 | 5.12%
24 | CCc1ccc(NC(=O)C(C)n2nc(C)c([N+](=O)[O-])c2C)cc1 (stereo not shown) | 10.8%
25 | O=c1[nH]c(O)c(C=NCCc2ccccc2)c(=O)[nH]1 | 17.1%
26 | Cc1ccc(CC(NC(=O)c2ccccc2)C(=O)N2CCCC2C(=O)O)cc1 (stereo not shown) (Bz-[Phe(4-Me)]-Pro-OH; configuration not given here) | -4.66%
27 | Cc1ccoc1C(=O)Nc1cccc2ccccc12 | 11%
28 | CN(C)C(=O)COC(=O)c1cccnc1Nc1ccccc1F | 1.96%
29 | Cc1ccc(C(=O)OCc2cn3ccccc3n2)cc1 | 1.89%
30 | Cc1n[nH]c(C)c1CCCCOc1ccccc1[N+](=O)[O-].O=C(O)C(=O)O | 13.3%
31 | CCCCn1c(NC(=O)C2CCCCC2)nc2ccccc21 | 8.06%
32 | O=C(NCCCN=C1NS(=O)(=O)c2ccccc21)c1ccc(S(=O)(=O)N2CCCCC2)cc1 | 0.873%
33 | O=C(Nc1ccccc1F)Oc1cccc(OC(=O)Nc2ccccc2F)c1 | 15.1%
34 | Cc1ccc(C)c(-n2cc(CN3CCN(C(=O)c4ncn[nH]4)CC3)c(-c3ccccc3)n2)c1 | -0.306%
35 | O=C1NC(c2ccccc2)=CC(c2ccccc2O)N1 (stereo not shown) | 3.34%
36 | COc1ccc(C(=O)NCc2nnc(SCC(=O)Nc3cccc(C(F)(F)F)c3)o2)cc1OC | 14.1%
37 | COc1ccccc1NC(=O)COC(=O)c1ccccc1C(=O)N1CCN(c2ccccc2)CC1 | 10.2%
38 | Cc1ccc(N2CC(=O)N(CC(=O)O)C2=O)cc1 | 14.3%
39 | CC(C)N=C1SC(CC(=O)Nc2ccccc2)C(=O)N1C(C)C (stereo not shown) | -6.76%
40 | CCOc1ccccc1NC(=O)CCS(=O)(=O)c1ccc(OC)cc1 | 13.6%
41 | COc1ccccc1N(CC(=O)N1CCC(C(N)=O)CC1)S(=O)(=O)c1ccccc1 | 16.6%
42 | CCCCNc1cc(=O)n(C)c(=O)[nH]1 | 8.93%
43 | CC(C)CN(C(=O)c1cccc([N+](=O)[O-])c1)c1c(N)n(CC(C)C)c(=O)[nH]c1=O | 12.2%
44 | C=CCn1c(SCC(=O)NCC2CCCO2)nc2sc(C)c(C)c2c1=O (stereo not shown) | 9.34%

Row | Compound | hERG current change (%, negative = inhibition) at 1uM
45 | CCOC(=O)c1ccc(CNS(=O)(=O)c2c(C)ccc3nsnc23)o1 | 6.38%
46 | Cc1cc(C)n2nc(SCc3ccccc3C(=O)O)nc2n1 | 11%
47 | Cc1nnc(SCC(=O)c2ccc(C(C)C)cc2)s1 | 12%
48 | COc1cc(C(=O)Nc2c(C(=O)O)[nH]c3ccc(C)cc23)cc(OC)c1OC | 10.6%
49 | COc1ccc(OC)c(C(=O)CSc2nc3ncccc3[nH]2)c1 | 14.1%
50 | C/C(=N\Nc1nnc2c3ccccc3n(C)c2n1)c1ccc(C)o1 | -35.3%
51 | Cc1cccc(N2C(=O)CS/C2=N\NC(=O)c2cccnc2)c1C | 10.2%
52 | O=C1C=C(NCc2ccc(Cl)cc2)CCC1 | -8.04%
53 | Cc1ccc(C)c(C(=O)COC(=O)C(C)N2C(=O)C3C4CCC(C4)C3C2=O)c1 (stereo not shown) | 14.5%
54 | C[C@H]1CC[C@@]2(O[C@@H](CCO)C[C@@H](O)[C@@H]2O)O1 | 15.1%
55 | COc1ccc(Cl)cc1NC(=O)CN1CCN(S(=O)(=O)c2ccc(F)cc2)CC1 | -1.66%
56 | CCOC(=O)C1(CCOc2ccccc2)CCN(Cc2cc(OC)c3c(c2)OCO3)CC1 | -7.24%
57 | Cc1cc2c(cc1C)C(c1cccc(F)c1)CC(=O)N2 (stereo not shown) | 14.2%
58 | O=C(CCc1nnc(CCC2CCCCC2)o1)NCCn1cccn1 | 9.32%
59 | CCCCNC(=O)COC(=O)c1ccc(C)c(NC(=O)c2ccco2)c1 | 11.3%
60 | COc1cc(/C=N/S(=O)(=O)CCc2ccccc2)cc(OC)c1O | 4.57%
61 | OCC(CO)(CO)NC(=S)Nc1cc(Cl)cc(Cl)c1 | 13.8%
62 | CCCCCN(C(=O)CCC(=O)OCC(=O)N1CCCC(C)C1)c1c(N)n(CCCC)c(=O)[nH]c1=O (stereo not shown) | 8.32%
63 | O=C(COc1ncnc2c(Cl)cc(Cl)cc12)Nc1cc([N+](=O)[O-])ccc1Cl | 7.51%
64 | CC1(C)CC2(CC(C)(C)N1)OC(=O)N1CCc3ccccc3C12C (stereo not shown) | 5.41%
65 | O=C(NC(=S)Nc1ccc(S(=O)(=O)N2CCCC2)cc1)C1CC1 | 7.05%
66 | NC(=O)CN1C(=O)NC2(CCCc3ccccc32)C1=O (stereo not shown) | 13.6%

Row | Compound | hERG current change (%, negative = inhibition) at 1uM
67 | Cc1cccc(NC(=O)C2(c3ccc([N+](=O)[O-])cc3)CCCC2)c1 | -6.17%
68 | O=C(NCc1nnc(SCC(=O)N2CCCC2)o1)c1ccccc1F | 13.7%
69 | Clc1nc(CN2CCCCC2)nc2sc3c(c12)CCC3 | 3.66%
70 | C=CCN=C(CC)C1=C(O)CCCC1=O | 1.76%
71 | CC(=O)c1ccc(NC(=O)c2cccc(N3C(=O)c4ccccc4C3=O)c2)cc1 | -1.29%
72 | CCC1CCCCN1CCCNC(=O)C1CCN(Cc2nc(-c3ccc(Cl)cc3)oc2C)CC1 (stereo not shown) | 9.92%
73 | CCOc1cccc(C2NC(=S)NC(C)=C2C(=O)Nc2ccccc2)c1 (stereo not shown) | 16%
74 | CCOc1ccccc1C(=O)Nc1nnc(Cc2ccc(OC)c(OC)c2)s1 | 16.3%
75 | CCC(C(=O)OC)n1cnc2c(oc3ccccc32)c1=O (stereo not shown) | 17%
76 | CCOC(=O)c1ccc(Cn2c(-c3ccccc3)nnc2-c2ccccc2)o1 | 4.13%
77 | O=C(O)c1cc([N+](=O)[O-])cc2c1nnn2O | 13.7%
78 | CCOC(=O)c1cc(-c2ccccc2)nn1Cc1cc(C)no1 | 15.9%
79 | N#C/C(=C\c1ccc(OCC(N)=O)cc1)S(=O)(=O)c1ccccc1 | 8.39%
80 | Cc1nnc(N2CCC(C(=O)NC3CCC(C)CC3)CC2)c2nn(-c3ccc(Cl)cc3)c(C)c12 (stereo not shown) | 14.1%
81 | COC(=O)CC1SCCNC1=O (stereo not shown) | 9.24%
82 | CN1CC(=O)NC1=NC(=O)c1cc(F)c(F)cc1Cl | 15.8%
83 | Cc1ccc(NC(=O)CC2C(=O)N(Cc3ccccc3)C(=S)N2NC(=O)c2cccc(F)c2)c(C)c1 (stereo not shown) | 2.54%
84 | CN(C(=O)c1ccc(NC(=O)Cc2cccc(NC(=O)C3CCN(C(=O)C4CCCC4)CC3)c2)cc1)C1CCCC1 | 6.3%
85 | COc1ccc(OC)c(/C=N/NC(=O)CC(=O)NC2CCCCC2)c1 | 10.7%
86 | COCCN1CCC(CNCc2cn(-c3cc(C)ccc3C)nc2-c2ccccc2)C1 (stereo not shown) | 2.69%
87 | CN1C(=O)C(C)(C)c2cc(S(=O)(=O)N(C)Cc3ccccc3)ccc21 | 13.7%
88 | O=C(COc1ccccc1C(=O)c1cnn(-c2ccccc2)c1)Nc1ccc2ccccc2c1 | 9.11%
